# Several values for one entry are separate records, joined by “and”; a condition that tells them apart may be missing. Identical values can stand only once. About 31,000 (8.9%) of roughly 350,000 compounds were called active. The shares of active, inactive and inconclusive entries below differ from those in the screen. The call rests on the fitted dose curve; in most records, active means well fitted inhibition curve with a large enough effect; inconclusive means small, poorly fitted or top-dose-only effect; inactive means no such curve, though single readings can be large or run the other way. Potencies beside an inconclusive call are fits to weak or partial responses and may not hold up.
# Molecular target: Histone-lysine N-methyltransferase EHMT2 (Homo sapiens) (UniProt Q96KQ7)
# Assay: qHTS Assay for Inhibitors of Histone Lysine Methyltransferase G9a; further: nearly all actives have a fitted effect of over 75% in size
# Details: G9a H3K9 monomethylation, AlphaScreen, 2 h; activity, negative = inhibition: at 59 µM (top of the series) unless noted
# In short: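 Signal arises when biotinylated H3K9 peptide, once monomethylated, bridges streptavidin donor and antibody-captured acceptor beads. Enzyme at 20 nM was preincubated 15 min with test compounds; peptide 500 nM and SAM 20 uM then reacted for 2 h.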
# On the % scale 0 is the no-effect control and ±100 the full control effect; potency means the concentration at half of the fitted maximal effect; tags describe the fitted curve by direction and shape.
# Sequence of UniProt Q96KQ7 (Q96KQ7 whole entry, looked up): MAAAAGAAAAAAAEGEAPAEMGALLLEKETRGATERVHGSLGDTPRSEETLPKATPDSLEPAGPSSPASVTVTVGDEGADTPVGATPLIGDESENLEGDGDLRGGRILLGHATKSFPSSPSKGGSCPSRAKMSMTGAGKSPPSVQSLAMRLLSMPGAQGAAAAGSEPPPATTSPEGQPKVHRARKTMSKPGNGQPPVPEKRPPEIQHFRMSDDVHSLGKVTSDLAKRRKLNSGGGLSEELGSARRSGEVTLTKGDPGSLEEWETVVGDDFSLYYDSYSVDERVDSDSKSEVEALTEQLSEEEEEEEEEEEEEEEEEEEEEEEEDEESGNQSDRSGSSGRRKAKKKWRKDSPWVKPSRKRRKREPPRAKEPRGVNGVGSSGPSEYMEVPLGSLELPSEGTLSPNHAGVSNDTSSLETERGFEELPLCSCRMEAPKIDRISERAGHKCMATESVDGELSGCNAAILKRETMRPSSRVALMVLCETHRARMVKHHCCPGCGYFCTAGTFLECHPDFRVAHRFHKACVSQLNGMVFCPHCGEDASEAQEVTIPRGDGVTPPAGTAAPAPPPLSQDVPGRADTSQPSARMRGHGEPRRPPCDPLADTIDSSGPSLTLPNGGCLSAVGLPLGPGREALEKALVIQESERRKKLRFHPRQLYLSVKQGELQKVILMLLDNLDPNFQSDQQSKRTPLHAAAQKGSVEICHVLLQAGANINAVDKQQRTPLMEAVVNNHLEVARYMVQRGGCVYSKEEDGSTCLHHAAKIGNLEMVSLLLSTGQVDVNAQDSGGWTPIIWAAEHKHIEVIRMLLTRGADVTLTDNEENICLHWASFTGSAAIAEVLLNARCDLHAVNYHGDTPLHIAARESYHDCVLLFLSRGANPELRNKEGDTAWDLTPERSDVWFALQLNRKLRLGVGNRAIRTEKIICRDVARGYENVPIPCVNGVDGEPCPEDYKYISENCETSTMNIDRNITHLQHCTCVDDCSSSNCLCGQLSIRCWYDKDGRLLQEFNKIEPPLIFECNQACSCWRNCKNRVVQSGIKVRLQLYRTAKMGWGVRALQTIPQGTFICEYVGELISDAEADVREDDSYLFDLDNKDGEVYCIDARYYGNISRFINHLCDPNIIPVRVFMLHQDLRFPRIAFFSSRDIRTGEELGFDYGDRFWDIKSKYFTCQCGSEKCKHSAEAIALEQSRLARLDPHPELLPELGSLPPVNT
SMILES,Potency,"activity, negative = inhibition"
COc1ccc(-c2nc(CS(=O)CC(=O)NC3CCCCCC3)c(C)o2)cc1 (centres undefined),"inconclusive: 89.1 µM [inhibitor, single point]",–
Cc1cccc(-n2c(=S)[nH]c3c(oc4ccccc43)c2=O)c1,active: 12.6 µM,–
CN(C)S(=O)(=O)c1ccc(Cl)c(NC(=O)CN2CCN(Cc3ccc4c(c3)OCO4)CC2)c1,"inconclusive: 79.4 µM [inhibitor, partial curve, poor fit]",–
CCOC(=O)C1=C(O)/C(=C\c2ccc(CNC(=O)C(=O)Nc3ccccc3)o2)N=C1C,"inconclusive: 3.98 µM [inhibitor, single point]",–
CCC(C)Nc1oc(-c2ccc(COc3ccc(Cl)cc3)o2)nc1C#N (centres undefined),–,inactive: -37.3%
CCCCCCCCCC[N+](C)(C)CC/C=C1/c2ccccc2Sc2ccc(Cl)cc21,"inconclusive: 79.4 µM [inhibitor, single point]",–
COc1ccc(/C=N/NC(=O)c2[nH]c3ccc(Br)cc3c2-c2ccccc2)c(C(=O)O)c1OC,"inconclusive: 89.1 µM [inhibitor, single point]",–
CCOc1ccc(OCC(=O)Nc2nccs2)cc1,active: 35.5 µM,–
O=C(Cc1ccc([N+](=O)[O-])cc1)N1CCCCCC1,–,inactive: -2.39% [at 102 µM]
O=C(Nc1ccc2nn(-c3ccccc3)nc2c1)c1ccc(Br)o1,–,inconclusive: -73.9% [inhibitor]
C=Cn1cc[n+](CC(=O)c2ccc(Cl)c(Cl)c2)c1,"inconclusive: 89.1 µM [inhibitor, single point]",–
COc1ccc(C(C)=O)cc1CC(=O)N(Cc1ccccc1)c1ccccc1,–,inactive: 2.07%
CCC(CC)NCc1ccc(OC)cc1OC,"inconclusive: 44.7 µM [inhibitor, partial curve]",–
CC1(C)C(=O)OC(c2ccccc2)C(C)(C)C1=O (centres undefined),"inconclusive: 28.2 µM [inhibitor, single point]",–
O=C(Cc1ccc2c(c1)OCCO2)N1CCN(S(=O)(=O)c2cccc(Cl)c2Cl)CC1,"inconclusive: 28.2 µM [inhibitor, single point]",–
CCOC(=O)CSc1nnc(CNc2cccc(Cl)c2)n1C,–,inactive: -0.756%
O=C(Nc1ccccc1N1CCOCC1)c1ccc(F)c(S(=O)(=O)N2CCOCC2)c1,"inconclusive: 3.16 µM [inhibitor, partial curve, poor fit]",–
NC(=O)C1CCN(c2nc(-c3ccc4ccccc4c3)cs2)CC1,–,inactive: 1.19% [at 0.501 µM] and inactive: -9.94% [at 12.7 µM]
COc1ccc(N2CCN(S(=O)(=O)CCNC(=O)COc3ccccc3F)CC2)cc1,"inconclusive: 14.1 µM [inhibitor, partial curve]",–
COCC(=O)N1CCN(c2cccc(C(F)(F)F)c2)CC1,"inconclusive: 89.1 µM [inhibitor, single point]",–
N#C/C(C(=O)NCc1ccco1)=C1/SC(Cc2ccc(F)cc2)C(=O)N1c1ccccc1 (centres undefined),"inconclusive: 39.8 µM [inhibitor, single point]",–
CCCCOC(=O)c1nc[nH]c1C(=O)OCCCC,"inconclusive: 50.1 µM [inhibitor, partial curve]",–
COc1ccc2cc3cc(C(=O)N4CCN(Cc5ccc6c(c5)OCO6)CC4)oc3nc2c1,–,inconclusive: -59.9% [inhibitor]

SMILES,Potency,"activity, negative = inhibition"
Cc1cccc(Cn2cnc3c(NS(C)(=O)=O)c(C)c(C)cc32)c1,–,inactive: -9.22% [at 102 µM]
CC1CC(C)CN(C(=O)c2ccc3c(c2)N(Cc2ccccc2)CCS3)C1 (centres undefined),active: 39.8 µM,–
COC(=O)c1sc(NC(=O)c2cccc([N+](=O)[O-])c2)c(C(N)=O)c1C,active: 10 µM,–
Cc1ccc(C)c(Oc2cc(NN3CCCCC3)c([N+](=O)[O-])cc2[N+](=O)[O-])c1,active: 7.94 µM,–
CCN(CC)S(=O)(=O)c1ccc(C)c(NC(=O)CN2CCN(Cc3ccccc3)CC2)c1,"inconclusive: 3.98 µM [inhibitor, single point]",–
Cc1ccn2c(=O)nc(SCC(=O)NCc3ccc4c(c3)OCO4)nc2c1,"inconclusive: 79.4 µM [inhibitor, partial curve, poor fit]",–
Cc1ccc(Nc2nnc(SC3CCOC3=O)s2)cc1 (centres undefined),active: 10 µM,–
CC(/C=N/N1C(=O)CSC1=S)=C\c1ccccc1,"inconclusive: 31.6 µM [inhibitor, partial curve]",–
Cc1ccc(C(=O)Oc2c(S(=O)(=O)c3ccccc3)c(C)nn2-c2ccccc2)cc1,"inconclusive: 28.2 µM [inhibitor, partial curve, poor fit]",–
Cn1c(SCc2nc3ccccc3c(=O)[nH]2)nc2ccccc21,–,inactive: -21.6% [at 102 µM]
CC(=O)Nc1ccc(S(=O)(=O)NC(C)c2ccncc2)cc1 (centres undefined),"inconclusive: 25.1 µM [inhibitor, single point]",–
CCn1c(C(=O)N2CCC(C(=O)NCCCSC3CCCCC3)CC2)cc2sccc21,active: 39.8 µM,–
O=c1oc2cc(O)ccc2cc1-c1nnc(Nc2ccccc2F)s1,"inconclusive: 39.8 µM [inhibitor, partial curve, poor fit]",–
Cc1ccc(C(=O)Oc2oc(-c3ccco3)nc2C=Nc2ccccc2)cc1,active: 28.2 µM,–
COc1ccc(CC(=O)Nc2c3c(nn2C(C)(C)C)CS(=O)C3)cc1 (centres undefined),"inconclusive: 79.4 µM [inhibitor, single point]",–
CC(C)Cn1c(C23CC4CC(CC(C4)C2)C3)n[nH]c1=S,active: 3.16 µM,–
COc1cc2c(cc1OC)C(NNC(=O)c1ccc(Br)o1)=NC(C)(C)C2,–,inactive: 35.1% [at 102 µM]
COc1ccc(CNc2nc3ccccc3n2CCN2CCCCC2)cc1,"inconclusive: 50.1 µM [inhibitor, partial curve, poor fit]",–
Cc1nc(CCN2C(=O)c3ccccc3C2=O)n[nH]1,"inconclusive: 39.8 µM [inhibitor, partial curve, poor fit]",–
O=C(COc1ncnc2cc([N+](=O)[O-])ccc12)N(CCc1ccccc1)Cc1ccccc1,"inconclusive: 8.91 µM [inhibitor, partial curve, poor fit]",–
CCN(CC(=O)Nc1cccc(OC)c1)C(=O)c1cnc(Cl)c(Cl)c1,"inconclusive: 89.1 µM [inhibitor, single point]",–
O=C(O)CCSC1CC(=O)N(c2ccccc2)C1=O (centres undefined),"inconclusive: 79.4 µM [inhibitor, single point]",–
C=CCn1c(SCC(=O)Nc2ccccc2-c2ccccc2)nc2cc(C(=O)O)ccc2c1=O,–,inactive: -3.94% [at 102 µM]

SMILES,Potency,"activity, negative = inhibition"
CC(C)Cn1cnc2c(c(-c3ccccc3)c(-c3ccccc3)n2Cc2ccco2)c1=N,"inconclusive: 50.1 µM [inhibitor, partial curve]",–
Cc1c(OCc2ccc(C(=O)O)cc2)ccc2c(-c3ccccc3)cc(=O)oc12,"inconclusive: 44.7 µM [inhibitor, partial curve, poor fit]",–
C=CCOc1ccc(-c2nc3c(c(=O)[nH]c(=O)n3CCCC)n2C)cc1OC,–,inactive: 17.4%
Cc1cc(F)ccc1NC1(c2ccccc2)C(=O)c2ccccc2C1=O,active: 14.1 µM,–
COc1ccc(CNc2oc(Cc3cccc4ccccc34)nc2C#N)cc1,"inconclusive: 3.16 µM [inhibitor, single point]",–
CCc1ccccc1NC(=O)C1CCN(C(=O)N2CC(C)Oc3ccc(Cl)cc32)CC1 (centres undefined),"inconclusive: 20 µM [inhibitor, partial curve, poor fit]",–
O=C(N/N=C/c1ccc[nH]1)c1cc(-c2ccc(Cl)cc2)nc2ccccc12,"inconclusive: 22.4 µM [inhibitor, full curve, poor fit]",–
COc1ccccc1NC(=O)N1CCC(CN2CCc3ccccc3C2)CC1,–,inactive: -25.4%
C/C(=N\O)c1c(O)cc(-c2ccccc2)n(-c2ccccc2)c1=O,"inconclusive: 89.1 µM [inhibitor, single point]",–
COc1ccccc1/C=C/C(C)=O,–,inactive: 0.0093% [at 102 µM]
COc1ccc(CC(=O)N2CCOCC2)cc1,"inconclusive: 22.4 µM [inhibitor, single point]",–
CCOc1ccc(C(=O)CCC(=O)Nc2ncccc2O)cc1,–,inactive: 1.13% [at 2.33 µM]
COc1ccc2[nH]c(=O)c(CN(C(=O)c3ccco3)C3CCCCC3)cc2c1,"inconclusive: 8.91 µM [inhibitor, full curve, poor fit]",–
COc1ccc(-n2c(Cc3cccn3C)nnc2SCC(=O)Nc2cccc(Cl)c2)cc1,"inconclusive: 39.8 µM [inhibitor, single point]",–
COc1ccc(-c2nc(C#N)c(N3CCC(C)CC3)o2)cc1,active: 14.1 µM,–
O=C(CSc1c[nH]c2ccccc12)N1CCCc2ccccc21,"inconclusive: 39.8 µM [inhibitor, single point]",–
CCCCCSc1nnc2c(n1)OC(C)N(C(C)=O)c1ccccc1-2 (centres undefined),"inconclusive: 89.1 µM [inhibitor, single point]",–
COc1cc(/C=N/Nc2nc(=O)[nH]nc2C)cc(OC)c1O,"inconclusive: 2.51 µM [inhibitor, full curve, poor fit]",–
CCOC(=O)C1CCN(C(=O)C(C)Oc2ccc(Br)cc2)CC1 (centres undefined),"inconclusive: 89.1 µM [inhibitor, single point]",–
Cc1ccc(/C=c2/sc3n(c2=O)CCCN=3)o1,active: 8.91 µM,–
Cc1ccc(OC(=O)CSc2nnc(-c3cccs3)o2)cc1C,"inconclusive: 25.1 µM [inhibitor, partial curve, poor fit]",–
COc1ccc(CCNC(=O)/C=C/c2ccco2)cc1OC,active: 14.1 µM,–
COCCN(Cc1cc2ccc(C)cc2n2nnnc12)Cc1nnnn1C(C)(C)C,–,inactive: 4.58%

# — PubChem BioAssay AID504332 (National Center for Advancing Translational Sciences (NCATS), 2011)
